Where two headings read alike, the source gives them in different places. These are yes or no findings as the source states them, for the method shown. In cells and extracts the contact can be indirect. Some results given as binding are weak or reduced against the parent protein; the word gives no strength. Where a sequence is shown, tags or fusion partners need not be part of it.
T1: Fc-tagged purified human recombinant TLT-1 (TREM-like transcript 1) (human) (UniProt Q86YW5)
T1 sequence: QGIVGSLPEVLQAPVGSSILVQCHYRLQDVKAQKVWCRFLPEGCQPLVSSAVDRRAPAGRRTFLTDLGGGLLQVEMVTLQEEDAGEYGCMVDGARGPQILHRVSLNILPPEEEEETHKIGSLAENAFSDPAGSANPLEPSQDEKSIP

Protein sequences, listed by entry. Tags and fused reporters are not part of them. Lines headed by an entry give the natural chain unless they say otherwise; changes in a name come on top. Residues count along the entry.
UniProt P07766, residues 23-207: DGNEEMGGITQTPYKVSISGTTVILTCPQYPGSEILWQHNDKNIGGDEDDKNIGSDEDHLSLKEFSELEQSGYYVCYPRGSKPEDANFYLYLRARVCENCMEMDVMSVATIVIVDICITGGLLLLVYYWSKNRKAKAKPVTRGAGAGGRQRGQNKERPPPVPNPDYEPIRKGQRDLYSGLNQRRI
UniProt P04234, residues 22-171: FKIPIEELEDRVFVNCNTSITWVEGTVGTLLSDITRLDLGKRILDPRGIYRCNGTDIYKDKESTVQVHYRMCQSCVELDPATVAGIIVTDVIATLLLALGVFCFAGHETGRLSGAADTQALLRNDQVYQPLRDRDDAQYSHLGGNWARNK
UniProt P09693, residues 23-182: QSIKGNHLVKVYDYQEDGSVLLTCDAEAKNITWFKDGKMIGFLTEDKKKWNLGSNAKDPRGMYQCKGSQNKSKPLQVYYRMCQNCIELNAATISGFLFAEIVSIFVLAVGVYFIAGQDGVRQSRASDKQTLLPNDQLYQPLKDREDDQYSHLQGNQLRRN
UniProt P10747, residues 19-220: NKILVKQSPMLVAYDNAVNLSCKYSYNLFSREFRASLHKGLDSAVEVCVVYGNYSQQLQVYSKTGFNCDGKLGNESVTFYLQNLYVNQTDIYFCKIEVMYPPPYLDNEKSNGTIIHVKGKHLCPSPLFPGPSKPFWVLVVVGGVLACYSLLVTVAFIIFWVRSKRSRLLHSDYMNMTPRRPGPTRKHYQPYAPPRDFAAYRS


What was measured:
[1] = target: T1, Fc-tagged purified human recombinant TLT-1 (TREM-like transcript 1) (human); assay: co-IP; intact Jurkat cells incubated 15 min with Fc-tagged purified TLT-1 or IgG as control; lysate in mild IP lysis buffer (not boiled); 1 mg total protein with Protein A/G Dynabeads; immunoblot for individual targets with non-IP lysate as input; only the target purified
[2] = target: T1, Fc-tagged purified human recombinant TLT-1 (TREM-like transcript 1) (human); assay: as above; remark: listed apart in the source

| Molecule | binding [1] | binding [2] |
| --- | --- | --- |
| CD3ε (ε subunit of the CD3 receptor) (from UniProt P07766 23-207) | binds |  |
| TRAILR3 (receptor, UniProt O14798 26-236) ATTARQEEVPQQTVAPQQQRHSFKGEECPAGSHRSEHTGACNPCTEGVDYTNASNNEPSCFPCTVCKSDQKHKSSCTMTRDTVCQCKEGTFRNENSPEMCRKCSRCPSGEVQVSNCTSWDDIQCVEEFGANATVETPAAEETMNTSPGTPAPAAEETMNTSPGTPAPAAEETMTTSPGTPAPAAEETMTTSPGTPAPAAEETMITSPGTPA |  | no binding |

Other lines, results leading:

| binding [1] | binding [2] | Molecule |
| --- | --- | --- |
| no binding |  | CD3δ (from UniProt P04234 22-171) (receptor) |
| no binding |  | CD3γ (from UniProt P09693 23-182) (receptor) |
| no binding |  | CD28 (from UniProt P10747 19-220) (receptor) |
